Data taken from EP0534568B1 (ENIRICERCHE S.p.A., dated 1996).

Tests used:
[1] = target: T1, growth hormone receptor in microsomal liver membranes of a pregnant rabbit (rabbit, UniProt P19941 19-638); assay: radioreceptor assay, displacement of radioiodinated hGH from pregnant rabbit liver microsomal membranes
T1 construct: whole, on cells; The receptor stood in a liver microsomal membrane preparation (250 µg of proteins per tube), not on intact cells and not purified; also called membrane receptor; its own receptor
T1 sequence (looked up): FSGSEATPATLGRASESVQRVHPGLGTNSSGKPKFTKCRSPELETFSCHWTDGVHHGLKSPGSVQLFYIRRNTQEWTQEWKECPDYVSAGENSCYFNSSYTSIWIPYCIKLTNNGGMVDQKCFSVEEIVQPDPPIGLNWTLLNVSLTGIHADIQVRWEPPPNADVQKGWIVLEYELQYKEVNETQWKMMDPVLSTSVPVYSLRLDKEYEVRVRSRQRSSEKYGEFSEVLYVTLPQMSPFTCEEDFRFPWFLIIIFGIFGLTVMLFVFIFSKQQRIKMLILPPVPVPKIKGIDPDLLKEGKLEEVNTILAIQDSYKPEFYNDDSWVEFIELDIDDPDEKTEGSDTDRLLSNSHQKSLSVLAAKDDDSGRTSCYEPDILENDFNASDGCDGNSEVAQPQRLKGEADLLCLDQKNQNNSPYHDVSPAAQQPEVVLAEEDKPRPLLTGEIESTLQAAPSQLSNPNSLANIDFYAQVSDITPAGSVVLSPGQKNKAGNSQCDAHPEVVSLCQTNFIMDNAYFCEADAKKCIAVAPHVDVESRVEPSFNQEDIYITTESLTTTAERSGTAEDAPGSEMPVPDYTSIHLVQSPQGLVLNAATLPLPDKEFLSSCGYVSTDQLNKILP

[2] = target: T1, growth hormone receptor in microsomal …; assay: radioreceptor assay, displacement of radioiodinated hGH from pregnant rabbit liver microsomal membranes; relative to hGH = 100

B1: hGH mutant Arg134→Ala (ligand)
chain: not shown
notes: mature; also called Ala134; product of pSM386
IC50 [1]: 0.0255 µg/mL
% of activity VS 212/5 [2]: 74.6%

B2: hGH mutant Arg134→His (ligand)
chain: not shown
notes: mature; also called His134; product of pSM391
IC50 [1]: 0.02 µg/mL
% of activity VS 212/5 [2]: 95.2%

B3: hGH mutant Arg134→Leu (ligand)
chain: not shown
notes: mature; also called Leu134; Arg134-->Leu hGH
IC50 [1]: 0.0205 µg/mL
% of activity VS 212/5 [2]: 87%

B4: hGH mutant Arg134→Phe (ligand)
chain: not shown
notes: mature; also called Phe134; product of pSM389
IC50 [1]: 0.0225 µg/mL
% of activity VS 212/5 [2]: 79.1%

B5: hGH mutant Arg134→Pro (ligand)
chain: not shown
notes: mature; also called Pro134; product of pSM390
IC50 [1]: 0.0234 µg/mL
% of activity VS 212/5 [2]: 81.2%

B6: hGH mutant Arg134→Thr (ligand)
chain: not shown
notes: mature; also called Thr134; product of pSM388
IC50 [1]: 0.0212 µg/mL
% of activity VS 212/5 [2]: 83.8%
